Data from PubChem BioAssay AID2675 (National Center for Advancing Translational Sciences (NCATS), 2010).
Out of some 280,000 compounds screened, about 100 (0.036%) were called active. Inconclusive means that the source gave no clear call. Such entries were picked first, then a sample of the others. Calls come from the whole dose curve; as a rule, active = well fitted inhibition curve with a large enough effect in the signal ratio, with a control signal flat (not every such curve was filed as active); inconclusive = small, poorly fitted or top-dose-only effect, or effect the other way, or a change in a side signal; inactive = no such curve, though single readings can be large or run the other way; the % refers to the signal ratio. Potencies beside an inconclusive call are fits to weak or partial responses and may not hold up. A note “side channel” means that the fit belongs to a control or component signal, not to the main read-out.

Molecular target: Muscleblind-like protein 1 (Homo sapiens) (UniProt Q9NR56)
Assay: qHTS Assay for Inhibitors of MBNL1-poly(CUG) RNA binding
Conditions: TR-FRET MBNL1-His/biotin-(CUG)12 binding, 665/545 ratio; series mostly up to 57.5 µM
In short: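 Inhibition of protein-RNA binding appears as loss of TR-FRET between terbium anti-His antibody on MBNL1-His and streptavidin-XL665 on biotin-(CUG)12. Activity is normalized to buffer-only and uninhibited-complex controls.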
Potency is the fitted concentration of half-maximal effect; tags give direction and shape of the fitted curve or compound fluorescence and quenching.

Chain of UniProt Q9NR56 (Q9NR56 whole entry, looked up): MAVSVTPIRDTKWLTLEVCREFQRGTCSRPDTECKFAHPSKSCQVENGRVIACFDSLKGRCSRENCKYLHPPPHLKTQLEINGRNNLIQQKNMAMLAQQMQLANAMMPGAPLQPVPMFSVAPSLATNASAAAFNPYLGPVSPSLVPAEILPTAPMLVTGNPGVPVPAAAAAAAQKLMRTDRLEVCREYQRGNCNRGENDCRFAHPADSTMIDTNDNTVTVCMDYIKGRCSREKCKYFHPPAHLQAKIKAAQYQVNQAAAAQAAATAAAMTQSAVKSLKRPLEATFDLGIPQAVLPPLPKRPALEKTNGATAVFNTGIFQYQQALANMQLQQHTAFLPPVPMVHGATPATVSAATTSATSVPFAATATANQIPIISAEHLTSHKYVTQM

Compound	Potency
COc1ccc(C2(CNC(=O)c3cccc([N+](=O)[O-])c3)CCOCC2)cc1OC	inconclusive: 1.12 µM [quencher, side channel, partial curve]
CCC(C)[C@H](NC(=O)OC(C)(C)C)C(=O)N/N=C/c1cccc2nccnc12 (stereo partly specified)	inconclusive: 7.94 µM [quencher, side channel, full curve, poor fit]
CCOC(=O)c1sc(=S)n(-c2cccc(OC)c2)c1N	inconclusive: 28.2 µM [quencher, side channel, single point]
NS(=O)(=O)c1ccc(CCNC(=O)c2cccc([N+](=O)[O-])c2)cc1	inconclusive: 6.31 µM [quencher, side channel, partial curve, poor fit]
O=S(=O)(c1ccc(Br)cc1)N1CCN(c2ccc3nnc(-c4ccccc4)n3n2)CC1	inconclusive: 39.8 µM [fluorescent, side channel, single point]
CCN(CC)C(=O)CSc1nc(-c2ccco2)cc(C(F)(F)F)c1C#N	inconclusive: 0.562 µM [quencher, side channel, single point]
COc1cccc(/C=C2\SC(=S)N(CCC(=O)Nc3ccc(O)cc3)C2=O)c1	inactive
O=[N+]([O-])c1ccc(Cl)c(/C=N/n2c(C3CCCCC3)n[nH]c2=S)c1	inconclusive: 5.62 µM [quencher, side channel, full curve]
CCCN1CCN(CCCNC(=O)Cn2nc(C)n3c(cc4cc(OC)ccc43)c2=O)CC1	inconclusive: 20 µM [quencher, side channel, partial curve]
CSc1nnc(C)c(=O)n1COC(=O)/C=C/c1ccc2c(c1)OCO2	inconclusive: 28.2 µM [quencher, side channel, partial curve]
Cc1ccc(N2C(=O)C(Cl)=C(N3CCOCC3)C2=O)c(C)c1	inconclusive: 12.6 µM [quencher, side channel, partial curve]
Cc1ccc(N(CC(O)CN2CCOCC2)S(=O)(=O)c2ccc([N+](=O)[O-])cc2)cc1 (stereo unspecified)	inconclusive: 11.2 µM [quencher, side channel, partial curve]
Cc1csc2ncc(C(=O)NCc3ccc4c(c3)OCO4)c(=O)n12	inconclusive: 8.91 µM [quencher, side channel, single point]
O=C(N/N=C/c1ccccn1)c1cccs1	inconclusive: 20 µM [quencher, side channel, partial curve]
Oc1ccc(-c2nc3ncccn3c2Nc2ccc3c(c2)OCO3)cc1	inconclusive: 28.2 µM [quencher, side channel, partial curve]
CCOCCCNc1nc2nc3ccc(C)cn3c(=O)c2cc1C(=O)NCC1CCCO1 (stereo unspecified)	inconclusive: 3.55 µM [quencher, full curve]
N#C/C(=C\c1cn(Cc2ccc(F)cc2)c2ccccc12)C(=O)NCc1ccco1	inactive
O=C(Nc1ccc(S(=O)(=O)NCC2CCCO2)cc1)c1ccc(Cl)cc1[N+](=O)[O-] (stereo unspecified)	inconclusive: 11.2 µM [quencher, side channel, partial curve]

Compound	Potency
O=C(NCc1ccco1)C12CN(Cc3ccccc3)CC1C(c1cccc([N+](=O)[O-])c1)=NO2 (stereo unspecified)	inconclusive: 25.1 µM [quencher, side channel, single point]
CC(=O)Cn1cnc2sc(-c3ccccc3)cc2c1=O	inconclusive: 20 µM [quencher, side channel, partial curve]
COc1cc(C(O)c2nc3ccccc3s2)cc(OC)c1OC (stereo unspecified)	inactive
CC1(C)ON(C2CCCCC2)[C@H]2c3nc4ccccc4n3C[C@H]21	inactive
COc1cc(/C=C\C(=O)Nc2cc(=O)n(C)c(=O)n2C)cc(OC)c1OC	inconclusive: 10 µM [quencher, side channel, partial curve]
C=CCn1c(NC(=O)c2ccccc2Cl)c(C#N)c2nc3ccccc3nc21	inconclusive: 31.6 µM [quencher, side channel, single point]
O=C(O)c1cccc(NC(=O)c2ccc(N3C(=O)c4ccc(C(=O)Nc5cccc(C(=O)O)c5)cc4C3=O)cc2)c1	inactive
CN1C2C=C3C(C#N)=C(N)C(C#N)(C#N)C(c4ccc(Br)cc4)C3C1CC2 (stereo unspecified)	inconclusive: 44.7 µM [quencher, side channel, single point]
CC(C)C(NS(=O)(=O)c1cccc2nsnc12)C(=O)N1CCCCC1 (stereo unspecified)	inconclusive: 10 µM [quencher, side channel, partial curve]
c1ccc(-c2ccc(SCc3cccnc3)nn2)nc1	inactive
COc1ccc(C(C(=O)NCC2CCCO2)N(Cc2cccs2)C(=O)c2snc(C(N)=O)c2N)cc1OC (stereo unspecified)	inconclusive: 25.1 µM [quencher, side channel, partial curve]
COc1ccc(CCN(C)C(=O)CNC(=O)c2ccc3c(c2)OCO3)cc1OC	inconclusive: 7.08 µM [quencher, side channel, partial curve]
NC(=O)CC(NC(=O)Cc1ccc(Br)cc1)c1ccc(N2CCC(Cc3ccccc3)CC2)c([N+](=O)[O-])c1 (stereo unspecified)	inactive
O=C(O)c1ccc2c(=O)n3c(nc2c1)/C(=C/c1ccc(Cl)c([N+](=O)[O-])c1)CC3	inconclusive: 1.78 µM [quencher, side channel, full curve, poor fit]
O=S(=O)(O)c1cc(O)c2c(O)c(N=Nc3cc(Cl)ccc3O)c(S(=O)(=O)O)cc2c1	inconclusive: 12.6 µM [quencher, side channel, partial curve]
CCn1cc(C2=NC(C)CO2)c2ccccc21 (stereo unspecified)	inactive
c1ccc(-c2nc(-n3ccnc3)nc(-n3ccnc3)n2)cc1	inconclusive: 31.6 µM [quencher, side channel, single point]
CCOC(=O)Cn1c(=NC(=O)CSC(C)=O)sc2cc(OC)ccc21	inconclusive: 35.5 µM [fluorescent, side channel, single point]
